Among all 320,000 compounds or so, about 200 (0.062%) were called active. Inconclusive means that the source gave no clear call. Such entries were picked first, then a sample of the others. The call rests on the fitted dose curve; in most records, active means well fitted activation curve with a large enough effect; inconclusive means small, poorly fitted or top-dose-only effect; inactive means no such curve, though single readings can be large or run the other way. Potencies of inconclusive entries are left out as doubtful fits.
Experiment: qHTS assay for re-activators of p53 using a Luc reporter; further: nearly all actives have a fitted effect of over 45% in size; on activity change, positive = activation: % of control where 0% means no effect
Conditions: H1299 p53-A138V BP100-luciferase reporter, luminescence, 24 h; series mostly up to 92.2 µM; activity change, positive = activation: at the top concentration
In short: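 p53-null H1299 cells stably carrying temperature-sensitive p53-A138V and a BP100-luciferase reporter were pinned with compounds (4-point, 1:5 series) and held 24 hrs at 37 deg C. Luminescence was read 10 min after detection reagent.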
For Cc1ccc(C(=O)NC(=S)N2CCN(c3ccc([N+](=O)[O-])cc3)CC2)cc1, the “activity change, positive = activation” value was inactive: -2.15%. With C=CCOc1ccc2ccccc2c1CNn1c(C)n[nH]c1=S the Potency was inconclusive [activator, single point]. With CCOC(=O)c1ccc(NCc2nc3ccccc3n2C)cc1 the Potency was inconclusive [activator, partial curve, poor fit]. With Cc1ccc(OCCn2c(=O)sc3ccccc32)cc1 the Potency was inconclusive [activator, partial curve, poor fit]. For Nc1c(C(=O)c2ccccc2)oc2ccc(Br)cc12, the Potency was inconclusive [activator, partial curve, poor fit]. With COc1cccc(NC(=O)COC(=O)c2sccc2C)c1 the Potency was inconclusive [activator, full curve, poor fit]. In the case of O=C(Nc1cccnc1)c1c(F)c(F)c(F)c(F)c1F, the Potency is reported as inconclusive [activator, partial curve, poor fit]. In the case of Cc1ccc(OCc2cc(C(=O)N3CCN(C4CCCCC4)CC3)no2)cc1C, the Potency is reported as inconclusive [activator, partial curve, poor fit]. For Cc1cccc(NC(=S)N/N=C/c2c[nH]c3ccccc23)c1, the Potency was inconclusive [activator, partial curve, poor fit]. With Cc1ccc(S(=O)(=O)CCC(=O)Nc2nnc(-c3ccccc3S(C)(=O)=O)o2)cc1 the “activity change, positive = activation” value was inactive: 13.4%. In the case of Cc1cc(C)nc(NC(=O)/C=C/c2ccc3c(c2)OCO3)c1, the Potency is reported as inconclusive [activator, full curve, poor fit]. With Cc1ccc(C(=O)Nc2nc(-c3ccccn3)cs2)cc1S(=O)(=O)N1CCOCC1 the Potency was inconclusive [activator, partial curve, poor fit]. In the case of CCCCC(=O)NC(c1ccccc1OC)c1ccc2cccnc2c1O (stereo unspecified), the Potency is reported as inconclusive [activator, partial curve, poor fit]. For O=C(NCc1cccs1)c1cc(-c2ccc(O)cc2)on1, the “activity change, positive = activation” value was inactive: 10.1%. In the case of CC(C)Sc1nnc(-c2c[nH]c3ccccc23)n1C, the Potency is reported as inconclusive [activator, partial curve, poor fit]. In the case of N#CC(C(=O)OC1CCCCC1)c1nc2ccccc2nc1N1CCOCC1 (stereo unspecified), the “activity change, positive = activation” value is reported as inactive: -1.05%. In the case of COc1ccc(S(=O)(=O)N2c3ccccc3OCC2CC(=O)O)cc1 (stereo unspecified), the Potency is reported as inconclusive [activator, single point]. For N=C1SC(c2ccccc2)C(=O)N1c1ncc(Cc2ccccc2Cl)s1 (stereo unspecified), the “activity change, positive = activation” value was inactive: 2.74%. In the case of CCN(CC)S(=O)(=O)c1cccc(NC(=O)c2cc3ccccc3o2)c1, the Potency is reported as inconclusive [activator, partial curve, poor fit]. With CC(C)C[C@H](NC(=O)c1[nH]cnc1C(=O)Nc1ccc(Cl)cc1)C(=O)OC(C)(C)C the “activity change, positive = activation” value was inactive: 3.78%. With Cc1c(/C=C/C(=O)c2ccccc2O)cnn1C the Potency was inconclusive [activator, full curve, poor fit]. In the case of O=C(NCC(=O)N1CCCCCCC1)c1cccc([N+](=O)[O-])c1, the Potency is reported as inconclusive [activator, partial curve, poor fit]. In the case of Nc1nc(SCc2ccc(Cl)cc2)ns1, the Potency is reported as inconclusive [activator, partial curve, poor fit]. In the case of Nn1c(SCC(=O)Nc2ccc3c(c2)OCCO3)nncc1=O, the Potency is reported as inconclusive [activator, single point]. In the case of C/C(CC(=O)Nc1cc(C)ccn1)=N\NC(=O)c1ccc(C(C)(C)C)cc1, the “activity change, positive = activation” value is reported as inactive: 7.06%. For Cc1ccccc1S(=O)(=O)/N=C(/Nc1nc2ccccc2s1)c1ccccc1, the Potency was inconclusive [activator, full curve, poor fit]. For CC1CN(C(=O)c2ccccc2NS(=O)(=O)c2ccc(Cl)cc2)CC(C)O1 (stereo unspecified), the “activity change, positive = activation” value was inactive: -8.22%. For COc1cccc2[nH]c(=O)c(-c3ccccc3)cc12, the Potency was inconclusive [activator, full curve, poor fit]. With O=C(CN(Cc1ccccc1)S(=O)(=O)c1ccc(F)cc1)NCCC1=CCCCC1 the “activity change, positive = activation” value was inactive: 3.92%. In the case of Oc1ccccc1/C=N/NC1=NCCCCC1, the Potency is reported as inconclusive [activator, full curve, poor fit]. With O=[N+]([O-])c1cccc(-c2ccc(SCc3ccccn3)nn2)c1 the Potency was inconclusive [activator, partial curve]. With CC(=O)Nc1ccc(-c2csc(NC(=O)Cc3ccccc3F)n2)cc1 the “activity change, positive = activation” value was inactive: 11.6%. With CCOc1ccccc1NC(=O)CCc1c(C)nn(-c2ccc(N3CCCCC3)nn2)c1C the Potency was inconclusive [activator, partial curve, poor fit]. With Cc1nn2c(nc1=O)SCC(c1ccccc1)=N2 the Potency was inconclusive [activator, partial curve, poor fit]. In the case of c1ccc(-c2cc3cc4c(cc3cn2)OCO4)cc1, the Potency is reported as active: 8.91 µM. In the case of COc1cccc(N/C=C/C(=O)c2ccc(Cl)cc2)c1, the Potency is reported as inconclusive [activator, partial curve, poor fit]. In the case of Cc1ccc(C)c(S(=O)(=O)Nc2ccc(C(=O)NCCCN3CCOCC3)cc2)c1, the Potency is reported as inconclusive [activator, partial curve, poor fit]. For COc1cccc(NC(=O)c2ccccc2-c2nc(-c3ccc(Cl)cc3)no2)c1, the Potency was inconclusive [activator, full curve, poor fit]. In the case of O=C(N/N=C\C=C\c1ccco1)c1cc(-c2ccc3ccccc3c2)n[nH]1, the Potency is reported as inconclusive [activator, partial curve]. With COc1cccc(/C=N/n2c(C3CCCCC3)n[nH]c2=S)c1O the “activity change, positive = activation” value was inactive: 4.2%. For O=C1NCCOC(=O)[C@@H](Cc2ccc(F)cc2)CC/C=C/C[C@H]1CC(=O)N(CCO)Cc1ccccc1, the “activity change, positive = activation” value was inactive: 5.76%. With COc1cccc(Nc2ccc(C(=O)O)cc2N)c1 the Potency was inconclusive [activator, full curve, poor fit]. For Cc1ccc(NC2CCCN(C(=O)CN3C(=O)c4ccccc4C3=O)C2)cc1C (stereo unspecified), the “activity change, positive = activation” value was inactive: 5.19%. For CC(C)(C)[C@@H]1COC(=O)[C@@H](Cc2ccc(F)cc2)C/C=C\C[C@H](CC(=O)N(CCO)Cc2ccccc2)C(=O)N1, the Potency was inconclusive [activator, single point]. In the case of COc1ccc2nc(Nc3ccc4c(c3)OCO4)sc2c1, the Potency is reported as inconclusive [activator, partial curve, poor fit]. For Nc1nc(-c2cccc(NS(=O)(=O)c3ccccc3)c2)cs1, the “activity change, positive = activation” value was inactive: -10.2%. For Clc1ccc(CN2CCN(c3ncnc4scc(-c5cccs5)c34)CC2)cc1, the “activity change, positive = activation” value was inactive: 0.817%. With CC1Cc2ccccc2N1C(=O)CSC1=NCCS1 (stereo unspecified) the Potency was inconclusive [activator, single point]. With O=C(c1ccc(-c2cccc(C(F)(F)F)c2)o1)N1CCOCC1 the Potency was inconclusive [activator, full curve, poor fit]. For Cc1ccc(C(=O)N2CCN(S(=O)(=O)c3sc(C(=O)O)c(C)c3C(=O)O)CC2)s1, the “activity change, positive = activation” value was inactive: -8.41%. In the case of O=C(CSc1nc2ccccc2s1)c1ccc(O)cc1O, the Potency is reported as inconclusive [activator, full curve, poor fit]. For CC(C)(C)NC(=O)c1ccccc1-c1nc2ccccc2s1, the “activity change, positive = activation” value was inactive: -6.83%. In the case of Cc1ccc(/C=C/C(=O)Nc2cc(C)on2)cc1, the Potency is reported as inconclusive [activator, full curve, poor fit]. With CC(=O)c1ccc(NC(=S)NCCCn2ccnc2)cc1 the Potency was inconclusive [activator, single point]. In the case of COc1ccc(/C=C2\SC(N3CCCCC3)=NC2=O)cc1, the Potency is reported as inconclusive [activator, partial curve, poor fit]. In the case of CCn1c(C)csc1=NC(=O)c1ccccc1, the Potency is reported as inconclusive [activator, single point]. With CCOC(=O)c1c(C)n(-c2ccc(C)cc2)c2ccc(O)c(CN(C)C)c12 the Potency was inconclusive [activator, single point]. For CCc1ccc(N(C(=O)c2snc(C(N)=O)c2N)C(C(=O)NC2CCCC2)c2ccco2)cc1 (stereo unspecified), the “activity change, positive = activation” value was inactive: -14.6%. For COc1cccc(NC(=O)Nc2cccc(C)n2)c1, the “activity change, positive = activation” value was inactive: 9.26%. For O=C(Nc1ccc(CN2CCOCC2)cc1)c1cccc(F)c1, the Potency was inconclusive [activator, full curve, poor fit]. In the case of C=CCn1c(-c2ccncc2)n[nH]c1=S, the “activity change, positive = activation” value is reported as inactive: 5.02%. In the case of CS(=O)(=O)N(CC(=O)N1CCCC1)c1cccc(F)c1, the “activity change, positive = activation” value is reported as inactive: 11.3%. With S=C(Nc1ccccc1)Nc1ccc(Br)cn1 the “activity change, positive = activation” value was inactive: 3.06%. For CNC(=O)CS(=O)CC(=O)Nc1cc(OCCOC)c(Cl)cc1Cl (stereo unspecified), the “activity change, positive = activation” value was inactive: -1.97%. For S=C(NCc1ccccn1)Nc1ccc(Cl)c(Cl)c1, the Potency was inconclusive [activator, single point]. With Cc1cc(C)c2nc(N3CCCC(C(=O)NCCN4CCOCC4)C3)sc2c1 (stereo unspecified) the Potency was inconclusive [activator, partial curve, poor fit]. In the case of CCOc1ccc(NC(=O)Nc2cccc(C(=O)O)c2)cc1, the “activity change, positive = activation” value is reported as inactive: -13%. In the case of CCOc1ccc(N(CC(=O)Nc2ccc(OC)cc2)S(C)(=O)=O)cc1, the Potency is reported as inconclusive [activator, partial curve, poor fit]. With O=C(Nc1nnc(-c2ccc3c(c2)OCCO3)o1)C1CCCCC1 the “activity change, positive = activation” value was inactive: 3.72%. With CCOc1cccc(C(=O)NC(=S)Nc2ccccc2)c1 the Potency was inconclusive [activator, partial curve, poor fit]. With COc1ccc(-c2c[n+]3c(n2-c2ccccc2)SCC3)cc1 the “activity change, positive = activation” value was inactive: -1.09%.

Source: PubChem BioAssay AID504706 (National Center for Advancing Translational Sciences (NCATS), 2011)
Potency means the concentration at half of the fitted maximal effect; tags describe the fitted curve by direction and shape.
